Results reported in the supplement of paper PMC12217912.
Some of the results follow. The full chains were built here from the parent and the listed change. Inactive controls read about 0.05.

B1: TEV protease; numbered along this chain (parent)
chain: MGESLFKGPRDYNPISSSICHLTNESDGHTTSLYGIGFGPFIITNKHLFRRNNGTLVVQSLHGVFKVKDTTTLQQHLVDGRDMIIIRMPKDFPPFPQKLKFREPQREERICLVTTNFQTKSMSSMVSDTSCTFPSGDGIFWKHWIQTKDGQCGSPLVSTRDGFIVGIHSASNFTNTNNYFTSVPKNFMELLTNQEAQQWVSGWRLNADSVLWGGHKVFMVKPEEPFQPVKEATQL

Variants of: B1
Assay: raw area under fraction-flipped curve 0-4 h after induction (AUC4h, not background-subtracted), DNA-recorder readout of cleavage of the substrate (dimensionless); higher = more cleavage of the substrate by the protease variant
Settings: temperature: 34 °C; time window: 0-4 h after rhamnose induction
Method: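 In vivo DNA recorder in E. coli TOP10(DE3) ΔrhaA at 34 °C. Each TEVp single-site mutant (parent TEVp 0) is paired with a single-site variant of the 7-mer TEVs (canonical ENLYFQ|S). The substrate sits between flexible linkers in a Bxb1-sfGFP-TEVs-SsrA fusion, so cleavage stabilises Bxb1 and speeds flipping of a recombination array, read by NGS. The value is the raw area under the fraction-flipped curve over 0-4 h after rhamnose induction (AUC4h), with ≥20 reads per time point. It is not background-subtracted; inactive controls average about 0.047.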
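Note: Bxb1 expression induced with 0.2% (w/v) L-rhamnose at OD600 near 0.5, cultures sampled hourly, flipped fraction per protease–substrate barcode pair counted by paired-end Illumina sequencing.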

Variant	area with substrate ENLYFAS	area with substrate ENLYFCS	area with substrate ENLYFDS	area with substrate ENLYFES	area with substrate ENLYFFS	area with substrate ENLYFHS	area with substrate ENLYFIS	area with substrate ENLYFKS	area with substrate ENLYFLS	area with substrate ENLYFMS	area with substrate ENLYFNS	area with substrate ENLYFRS	area with substrate ENLYFSS	area with substrate ENLYFTS	area with substrate ENLYFVS	area with substrate ENLYFWS	area with substrate ENLYFPS	area with substrate ENLYFYS	area with substrate ENLYFGS
Q151W	0.0502	0.0454	0.0528	0.0517	0.0641	0.0618	0.0474	0.0514	0.0594	0.0549	0.0677	0.0625	0.0609	0.0563	0.0689	0.0613	–	–	–
Q151C	0.0619	0.0511	0.0596	–	0.0663	0.0551	0.0636	0.0682	–	0.0577	–	0.0589	0.0594	0.0539	–	0.0694	0.0626	0.0568	–
Q151L	0.058	0.0588	0.0723	–	–	0.0621	0.0395	0.0591	0.0401	0.0725	0.0447	–	–	0.0592	–	0.056	0.0418	0.0571	–
S127A	0.0502	0.0577	0.0587	0.0653	0.0598	0.0498	0.0553	0.0645	0.0499	0.07	0.0723	0.0628	–	0.0358	0.0545	0.0511	0.0651	0.0604	0.0561
Q118S	0.0457	–	–	–	0.0686	0.0599	0.0464	0.0828	–	–	0.0904	–	–	0.0635	–	–	0.0408	0.0095	0.0418
F133Q	0.0706	0.0466	–	–	–	–	0.0629	0.0683	–	0.0647	–	0.0502	–	0.0662	–	0.0558	0.0491	–	–
F133Y	0.0555	0.0291	–	–	–	0.0795	0.0495	0.042	0.0524	0.065	–	–	–	–	–	–	0.0588	–	–
P155Y	0.0388	0.0389	–	0.0511	0.0678	0.0444	0.0583	–	0.0569	0.0472	–	0.0506	–	0.0561	–	–	0.0338	0.0454	0.0434
S123V	0.0693	0.0579	0.0546	0.0691	–	0.0851	0.0612	–	–	0.0788	0.0526	0.0614	0.0728	0.0661	–	–	0.0612	0.0676	–
L156M	0.0638	0.0592	0.0637	0.073	0.0764	0.0659	0.0614	–	–	0.0436	–	0.0679	0.0571	0.0582	–	0.0634	0.0663	–	0.075
L156I	0.0413	–	0.0539	0.0448	0.0627	–	0.0544	0.0616	–	0.0601	0.0665	0.0534	0.0446	0.0617	0.0881	0.0537	0.0569	–	–
L156D	0.0462	0.0512	–	0.0616	0.0585	–	0.0466	0.0574	0.0553	–	0.0586	0.05	–	–	0.0404	0.0646	0.0427	0.0661	–
S124Q	0.0628	0.0597	–	0.0758	0.0632	–	0.0627	0.0829	–	0.0641	0.0572	–	–	–	–	0.0616	0.0567	0.0508	–
